According to PubChem BioAssay AID488969 (Vanderbilt High Throughput Screening Facility, 2010):
Whole data set: some 110,000 compounds, median “z-score” near -0.1, cut for the highest 2% near 2. Some of the results follow. Activity calls are given as the source filed them.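 The calls were made as follows: active = z-score in the third read window above 3 or below -3; inactive = the rest.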

molecular target: Metabotropic glutamate receptor 8 (Rattus norvegicus) (UniProt P70579); assay: rat mGluR8 modulators via GIRK flux, primary screen, cell-based, thallium flux, HTS (AID 488969); conditions: HEK293 rat mGluR8, GIRK (G protein-gated inwardly rectifying potassium channel) thallium flux, FluoZin2; at 10 µM; stronger effect = higher value; submaximal glutamate (EC20) added with thallium
Sequence of UniProt P70579 (P70579 whole entry, looked up): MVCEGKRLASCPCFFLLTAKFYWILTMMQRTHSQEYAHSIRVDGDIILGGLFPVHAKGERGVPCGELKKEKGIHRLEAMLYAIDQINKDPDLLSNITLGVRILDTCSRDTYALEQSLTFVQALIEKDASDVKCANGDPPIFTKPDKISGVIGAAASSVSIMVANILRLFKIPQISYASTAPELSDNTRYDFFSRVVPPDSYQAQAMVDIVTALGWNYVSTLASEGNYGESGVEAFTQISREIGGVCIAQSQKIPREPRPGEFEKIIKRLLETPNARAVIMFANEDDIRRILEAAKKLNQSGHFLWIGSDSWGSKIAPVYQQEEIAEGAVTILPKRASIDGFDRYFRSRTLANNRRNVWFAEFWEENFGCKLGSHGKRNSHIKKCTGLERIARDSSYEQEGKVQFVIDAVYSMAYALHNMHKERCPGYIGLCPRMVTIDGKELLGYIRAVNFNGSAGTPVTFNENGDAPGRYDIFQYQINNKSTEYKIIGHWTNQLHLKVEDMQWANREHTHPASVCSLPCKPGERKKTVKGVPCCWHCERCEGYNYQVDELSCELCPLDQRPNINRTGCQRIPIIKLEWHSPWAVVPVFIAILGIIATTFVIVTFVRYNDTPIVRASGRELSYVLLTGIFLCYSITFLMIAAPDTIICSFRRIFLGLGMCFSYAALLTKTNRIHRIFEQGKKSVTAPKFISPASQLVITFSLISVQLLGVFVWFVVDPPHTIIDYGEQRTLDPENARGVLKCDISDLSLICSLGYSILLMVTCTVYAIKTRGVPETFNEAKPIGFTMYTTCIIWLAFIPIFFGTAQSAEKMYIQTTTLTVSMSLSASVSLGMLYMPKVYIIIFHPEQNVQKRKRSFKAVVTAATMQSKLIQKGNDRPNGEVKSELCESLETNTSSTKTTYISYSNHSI

SMILES | z-score
CC(C(=O)N1CCCc2ccccc21)N1C(=O)c2ccccc2C1=O (stereo not given) | 0.21
COc1ccc(N(CC(=O)NCc2cccs2)S(=O)(=O)c2c(C)nn(C)c2C)cc1 | -0.00457
CCC(=O)Nc1ccc(S(=O)(=O)N2CCCCC2)cc1OC | 0.0489
CS(=O)(=O)N1CCN(C(=S)NCc2ccc(F)cc2)CC1 | -0.0373
Cc1ccc(NCN2C(=O)C3CC=C(Cl)CC3C2=O)cc1 (stereo not given) | 0.0121
COc1cc(C(=O)N(C)c2nnc(-c3cccnc3)s2)cc(OC)c1OC | -0.385
Cn1cc(C=C2C(=O)CC(C)(C)CC2=O)c2ccccc21 | -1.12
O=C(c1ccncc1)N1CCN(C(=O)c2cccs2)CC1 | 0.201
CCc1ccc2nc(Nc3nc(COC)cc(=O)[nH]3)nc(C)c2c1 | 2.69
COc1ccccc1CC(=O)Nc1ccc(-c2noc(COc3ccc(Cl)c(C)c3)n2)cc1 | -0.166
CCOC(=O)C(=O)/C(C#N)=C/Nc1ccccc1 | -0.0235
COc1ccc2nc(NC(=O)CN3CCN(C)CC3)sc2c1 | 0.194
O=C(Nc1ccc(F)cc1)N(Cc1ccco1)Cc1cc2cc3c(cc2[nH]c1=O)OCO3 | 0.316
Cc1cc(C)c(C)c(OCC(=O)NCc2nc(-c3ccccc3)no2)c1 | -0.298
O=C(Nc1ccc(N2CCOCC2)cc1)c1ccc2nc(-c3ccco3)c(-c3ccco3)nc2c1 | 0.375
CCN(CC)c1ccc2cc(-c3nnc(-c4ccc(Br)cc4)o3)c(=O)oc2c1 | active: -4
COc1ccccc1-n1cnc(N)c1C(C)=O | 0.258
O=C1NC(CCc2ccccc2)C(=O)N1Cc1cccc2ccccc12 (stereo not given) | -0.311
COc1ccc2nc(SCC(=O)Nc3ccc4sc(C)nc4c3)c(C#N)cc2c1 | -0.0545
COc1ccc(OCC(=O)Nc2sc3c(c2C(=O)NCC2CCCO2)CCC3)cc1 (stereo not given) | -0.55
CCn1c2ccccc2c2cc(CN3CCN(S(C)(=O)=O)CC3)ccc21 | -0.000409
CCCC(=O)NC(C)c1nc2ccccc2n1C (stereo not given) | -0.523

SMILES | z-score
CSc1cccc(NC(=O)C2CCCN(S(=O)(=O)c3cnc[nH]3)C2)c1 (stereo not given) | 0.844
CN1/C(=c2/s/c(=C3/C(=O)N(c4ccccc4)NC3=Nc3ccccc3)n(C)c2=O)C(C)(C)c2ccccc21 | -0.291
COc1ccc2cc(C(c3nnnn3Cc3ccc(F)cc3)N3CCCCCC3)c(=O)[nH]c2c1 (stereo not given) | 0.021
O=C(CC(Nc1ccc(F)cc1)c1ccccc1)c1ccccc1 (stereo not given) | -0.345
COc1ccc(CNC(=O)COC(=O)c2cnccn2)cc1 | 0.357
CCOC(=O)CSc1nc2cccnc2n1-c1ccc(F)cc1 | -1.83
CCOC(=O)C1CCN(C(=O)CN(c2ccc(OC)cc2)S(=O)(=O)c2c(C)noc2C)CC1 | 0.0476
CCn1nc(CCC(=O)O)c2ccccc2c1=O | -0.706
Fc1cccc(Cl)c1CNCc1ccccc1Cl | -0.0951
Clc1ccc(Cc2noc(CN3CCN(c4ccccc4)CC3)n2)c(Cl)c1 | -0.138
CN(C)CCNC(=O)CCCNC(=O)Cn1cnc2sc3c(c2c1=O)CCCC3 | 0.58
CN(C)/N=C/c1c(O)ccc2ccccc12 | -0.163
Cc1ccnc(NC(=O)c2ccc(NC(=O)c3ccco3)cc2)c1 | -0.719
Cc1ccccc1Cn1nnc(-c2cccc(C(=O)O)c2)n1 | -0.109
CCCCOc1ccc(-c2nnn(CC(=O)Nc3ncc(CC(=O)OCC)s3)n2)cc1 | 0.0365
COc1cc(/C=N/NC(=O)Nc2ccccc2)ccc1OC(C)=O | -0.111
O=C(COc1ccccc1)Nc1ccccc1Oc1ccccc1 | -0.146
COC(=O)c1cc2nc(-c3ccc(OC)c(OC)c3)cc(C(F)(F)F)n2n1 | -0.569
CCOc1ccc(Oc2nc(Nc3ccc(C)cc3)nc(N(C)C)n2)nn1 | -0.393
O=C(Nc1ccc(F)cc1)N1CCN2C(=O)c3ccccc3C12c1ccccc1 (stereo not given) | -0.00996
O=C(c1c[nH]c(=O)n(-c2ccccc2)c1=O)N1CCc2ccccc21 | 0.262
O=C(c1nn2c(C(F)(F)F)cc(-c3ccccc3)nc2c1Cl)N1CCOCC1 | -0.565

SMILES | z-score
Cc1ccc(-c2nc(CS(=O)CC(=O)NC3CCCC3)c(C)o2)cc1 (stereo not given) | 0.11
COc1ccc(/C=N/NC(=O)CSc2n[nH]c(=O)[nH]c2=O)cc1 | 0.305
Cc1ccc(Nc2nc(N)nc(CSC(=S)N3CCOCC3)n2)c(C)c1 | 0.00021
C=CCn1c(CSc2nc3ccccc3s2)nnc1SCC(=O)NCc1ccco1 | -0.276
CCCS(=O)(=O)N1CCCC(C(=O)NCCCN(C)c2ccccc2)C1 (stereo not given) | 0.0444
CCOc1ccc(Cn2ccnc2)cc1[N+](=O)[O-] | 0.0279
CCNC(=O)CC1C(=O)N(CC)C(=S)N1NC(=O)c1ccc(Cl)cc1 (stereo not given) | -0.344
O=C(NC1CCc2ccccc21)C1CCN(S(=O)(=O)c2ccc(-n3cnnn3)cc2)CC1 (stereo not given) | 0.204
CCOC(=O)COc1ccc2nsnc2c1Cl | 0.0791
CCOc1ccc2c(c1)s/c(=N\S(=O)(=O)c1ccc(OC)cc1)n2C(F)F | -0.0602
CCCCCCCOC(=O)C[N+](C)(C)CCOC1CC2CCC1(C)C2(C)C (stereo not given) | 0.193
Cc1nc(S(=O)(=O)c2ccc(Cl)cc2)nc2c1CCC2 | -0.176
CCCCN(CCCC)c1nc(OC)nc(-n2nnc(C(C)=O)c2C)n1 | -1.5
Cc1ccc(-n2nnnc2SCC(=O)c2ccc3c(c2)NC(=O)CO3)c(C)c1 | -0.0959
COc1ccc2c(c1)c(C(=O)CN1CCOCC1)c(C)n2C | -0.445
CC(/C=C/c1ccc(OCc2ccccc2)cc1)=N\O | 0.113
CCOc1ccccc1C(=O)OCC(=O)Nc1cc(Cl)ccc1Oc1ccccc1 | -0.66
Cc1ccc(CCNC(=O)C2CCCN(S(=O)(=O)c3cnc[nH]3)C2)cc1 (stereo not given) | -0.182
COCc1cc(=O)[nH]c(Nc2nc3ccc(C)cc3o2)n1 | -0.654
O=C(CSc1nnc(-c2cccnc2)n1Cc1ccco1)c1ccccc1 | -0.0629
O=C(O)C1CCCCC1C(=O)Nc1ccccn1 (stereo not given) | 0.212
COc1cccc(Cn2c(NCC(C)C)nc3c2c(=O)n(C)c(=O)n3C)c1 | -0.387

SMILES | z-score
CCOC(=O)c1c(-c2ccccc2)oc2ccc(OC)cc12 | 0.0333
CN1c2ccsc2C(O)=C(C(=S)Nc2ccc(F)c(Cl)c2)S1(=O)=O | 0.653
COc1cccc(-c2cnc(OC(C)(C)C)nc2OC(C)(C)C)c1 | -0.0368
CSc1nc(Cl)c(Cc2ccc(OCC(C)C)cc2)c(N2CCOCC2)n1 | -0.0578
Cc1cccc(N(C(=O)CCC(=O)Nc2cccnc2)C(C(=O)NC2CCCC2)c2ccncc2)c1 (stereo not given) | 0.41
COc1cc(Br)cc(CN2CCN(C/C=C/c3ccccc3)CC2)c1O | 0.0564
Cc1ccc(S(=O)(=O)NCc2ccc(C(=O)NCCCN3CCN(C)CC3)cc2)cc1 | -0.409
Cc1cc(C)c2nc(C(F)(F)F)nc(N3CC(C)OC(C)C3)c2c1 (stereo not given) | -0.0212
CSc1nc2oc3c(c2c2nncn12)CC(C)(C)SC3 | -0.451
CC(=O)NC(c1ccc(F)cc1)c1cccnc1 (stereo not given) | 0.763
Cc1ccc(-c2csc3nc(SCC(=O)N(C)C)n(Cc4ccccc4)c(=O)c23)cc1 | -1.11
N#CC1=C(SCc2ccccc2)NC(=O)CC1c1ccccc1 (stereo not given) | -0.391
O=C(/C=C/c1ccc(F)cc1)NC(=S)Nc1ccccc1C(=O)NC1CCCCC1 | -0.118
Cc1ccc2nc(NC3=NCN(Cc4ccc5c(c4)OCO5)CN3)nc(C)c2c1 | 0.799
COc1cc(C)c(Cl)cc1S(=O)(=O)N(C)C | -0.812
CCOC(=O)c1sc(NC(=O)CCCn2nc([N+](=O)[O-])c(Cl)c2C)c(C(=O)OCC)c1C | 0.013
COc1ccc(-c2onc3ccc(Cl)cc23)cc1OC | 0.79
COCCCn1c(SCC(=O)NCc2ccccc2)nc2ccccc2c1=O | 0.859
Nc1n[nH]c(-c2ccccc2[N+](=O)[O-])n1 | -0.817
CCS(=O)(=O)N1CCN(c2ccc([N+](=O)[O-])c(NCc3ccccc3)c2)CC1 | -0.422
Cc1ccc(NC2=NC(C(=O)Nc3ccc(C)c(C)c3)CC(=O)N2)cc1 (stereo not given) | 0.0681
CC1CCc2nn(CC(=O)NCc3ccc(F)cc3)cc2C1 (stereo not given) | -1.72

SMILES | z-score
O=C(NCC1CCS(=O)(=O)C1)NCC1CCS(=O)(=O)C1 (stereo not given) | 0.468
c1ccc(C(c2nnnn2C2CCCC2)N2CCN(c3nc4ccccc4s3)CC2)cc1 (stereo not given) | 0.0979
CCC1CCCN1Cn1cnc2c([nH]c3ccc(OC)cc32)c1=O (stereo not given) | active: 6.77
Cc1cc(OC(=O)c2c(Cl)cc(Cl)cc2Cl)nc(C)n1 | -0.00584
Cc1ccc2nc(NC(=O)CSc3nc4ccccc4o3)sc2c1 | 0.182
Cc1cccc2cc(CN(Cc3ccco3)C(=O)NC3CCCCC3)c(=O)[nH]c12 | -0.979
c1ccc2c(c1)nc(NCCN1CCOCC1)c1nncn12 | 0.494
CCOC(=O)CSC1=NC(=O)/C(=C\c2ccc(OC(C)=O)cc2)S1 | -0.9
O=C1C2CC=CCC2C(=O)N1c1ccc(Cc2ccncc2)cc1 (stereo not given) | -0.0342
COc1ccccc1Cn1c(=S)[nH]c2cc(C(=O)N3CCN(C)CC3)ccc2c1=O | 1.08
CCN(CC)c1nc(C)c2c(c1C#N)CC(C)(C)OC2 | -0.441
COC(=O)c1c(NS(=O)(=O)c2cccs2)sc2c1CCCC2 | active: 6.32
COc1ccc(-c2[nH]ncc2/C=N\NS(=O)(=O)c2ccc(Cl)cc2)cc1 | -0.334
COc1cc(OC)nc(NC(=O)CSc2nc3ccccc3o2)n1 | -0.294
COc1ccccc1CNC(=O)COC(=O)/C=C/c1cccs1 | 0.174
CC(=O)NC(Cc1c[nH]c2ccccc12)C(=O)OCC(=O)Nc1cc(C)on1 (stereo not given) | -2.49
O=C(CSCc1cccc(Cl)c1)Nc1ccccc1-c1ccccc1 | -0.137
Cc1ccc(NC2=CC(=O)C(=O)c3ccccc32)cc1 | 0.197
CCOc1ccc(C(=S)N2CCOCC2)cc1OCC | -0.0319
O=C(CSc1nnnn1-c1ccc2c(c1)OCCO2)OC1CCCCC1 | -2.27
Cc1ccc2[nH]cc(CCCN3C(=O)c4ccccc4C3=O)c2c1 | 1.63
Cc1nnc(SCC(=O)N2CCN(S(=O)(=O)c3ccccc3)CC2)[nH]c1=O | -0.0349
